The list shows a part of the results. Values were computed here from the reads of four pooled replicates and scatter widely.
These sequences were tested against T1, Pho4 (S. cerevisiae) (UniProt P07270) (assay: relative binding free energy (BET-seq); higher = weaker binding). Conditions: reference: library average.
T1 sequence: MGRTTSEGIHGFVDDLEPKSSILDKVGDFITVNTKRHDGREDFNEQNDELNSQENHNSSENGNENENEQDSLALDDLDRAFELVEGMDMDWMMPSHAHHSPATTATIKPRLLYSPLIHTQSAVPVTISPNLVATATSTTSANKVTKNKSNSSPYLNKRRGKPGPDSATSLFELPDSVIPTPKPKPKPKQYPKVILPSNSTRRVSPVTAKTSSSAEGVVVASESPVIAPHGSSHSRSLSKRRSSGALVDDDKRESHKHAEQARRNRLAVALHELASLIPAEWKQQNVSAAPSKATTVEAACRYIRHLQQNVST

Sequence | relative binding free energy [kcal/mol]
CGTTTCACGTGCGTGT | 0.09
TTGTGCACGTGCCTAT | 0.07
AGGGTCACGTGCATGA | -0.01
TTTCACACGTGAGTGT | 0.23
GGATCCACGTGGGTGG | -0.25
TATTTCACGTGGTGAC | 0.23
GTGTACACGTGTTCAT | 0.05
TGTTGCACGTGGCTGA | -0.11
ATGCACACGTGGATGT | 0.15
TTTTACACGTGGTGAG | 0.06
ACAGGCACGTGGTTAG | -0.22
GGTTCCACGTGGAGTT | 0.07
TCAAGCACGTGGGGCG | -0.15
TAGTACACGTGTTCGT | 0.05
GCAGGCACGTGTTTTG | -0.07
GTATGCACGTGTAATA | 0.04
GGGTGCACGTGCTATT | 0.04
GATTGCACGTGAAGTG | 0.26
AGTATCACGTGGGCGT | 0.09
GTAGACACGTGAATGT | 0.4
AAAAGCACGTGGAGGT | -0.24
GGATCCACGTGATAGG | 0.18
CATTACACGTGTTTTG | 0
TGTTACACGTGGGCTC | 0.21
ATTAGCACGTGTGTGA | -0.02
AGGGCCACGTGCTGGT | -0.29

Sequence | relative binding free energy [kcal/mol]
GAGTTCACGTGGGGGG | 0.26
CAGGGCACGTGGCATG | -0.24
GGATTCACGTGTTTCG | 0.27
ATTTGCACGTGGAGGC | 0.04
GAAGTCACGTGTGGTG | 0.16
GGACGCACGTGGCGTT | -0.17
GGCCGCACGTGGTGAT | -0.07
GTGCTCACGTGACGGT | 0.29
TTGGCCACGTGGTTTA | -0.04
AGCGGCACGTGTGGTG | -0.07
ACGTGCACGTGAGAGG | 0.01
ACGTGCACGTGGCGTT | -0.12
GTCTGCACGTGCGGAT | 0.11
AGGGTCACGTGTGTGA | 0.04
TTCTGCACGTGGCGTA | 0.02
GGGGCCACGTGGATAT | 0.02
CGGGCCACGTGGGTAG | -0.31
GGCGTCACGTGAGTGG | 0.22
TAATACACGTGATAGT | 0.13
TCCAGCACGTGGGTGG | -0.25
TATTGCACGTGGATAG | -0.02
CTAGTCACGTGGAGTG | 0.02
TGGTCCACGTGAGTTG | 0.22
GTAGGCACGTGCTGTG | -0.23
TGGTGCACGTGTGAGT | 0.09
TTTTGCACGTGGTTTA | -0.04

Sequence | relative binding free energy [kcal/mol]
TGGTACACGTGTGTTA | 0.03
TGGGTCACGTGCCGTG | 0.09
GAATACACGTGGGATT | 0.17
GAGGGCACGTGCGCAT | -0.03
TGTTGCACGTGACGGT | 0.12
TGCGACACGTGTATAG | 0.15
TTTGTCACGTGTTGCC | 0.16
AGCGGCACGTGTCTGT | -0.07
TGGTTCACGTGGCGTA | 0.21
GCGATCACGTGGGGAT | 0
GGCGCCACGTGGGGTG | -0.2
GGTGGCACGTGCCTTG | -0.12
AGGGTCACGTGTAGCA | 0.06
GAGGTCACGTGGCAGT | -0.02
TGTTCCACGTGGTTGA | 0.07
TGACTCACGTGATTTG | 0.27
GGGCTCACGTGGTGTG | 0.18
GGATACACGTGGGGAC | 0.14
GGTGACACGTGCATGG | -0.06
GGTATCACGTGTAGTG | 0.07
TAATTCACGTGGGGGC | 0.05
GTAGGCACGTGGGCGC | -0.13
TGAACCACGTGGTAGG | -0.05
ATGCCCACGTGGGGTT | -0.15
ATTGCCACGTGATATG | 0.03
CGGCGCACGTGGGGGA | -0.29

Sequence | relative binding free energy [kcal/mol]
CTGTACACGTGTAGTG | -0.1
TTAGGCACGTGTGTCT | -0.07
GGTTTCACGTGGGGAA | 0.27
TGTGTCACGTGGAAAC | 0.11
GAGCGCACGTGTTGTA | -0.08
GGAAACACGTGTTTAG | 0.12
TATATCACGTGTTATG | 0.08
GTGGGCACGTGCTCGT | -0.13
TCATGCACGTGTAGGT | 0.01
ATGCTCACGTGGGGTA | 0
TGTGGCACGTGAGTGG | 0.18
ATTTTCACGTGGATTG | 0.15
ATTAGCACGTGTTGCA | -0.19
TTTATCACGTGTCAGG | 0.19
TTTGTCACGTGACTTG | 0.12
CAAAGCACGTGGAGGT | -0.14
TACTGCACGTGGTGAG | -0.1
CGTTTCACGTGGAGCG | 0.4
TGTTCCACGTGTATAG | 0.06
GCGGGCACGTGTCGTT | 0.01
CTTTGCACGTGAAGAG | 0.2
AGATTCACGTGACGGT | 0.28
TTACGCACGTGGAGGT | -0.21
ATGAACACGTGAGCGG | 0.26
GTTCGCACGTGTTGGC | 0.17
GGACTCACGTGTAGTG | 0.14

Sequence | relative binding free energy [kcal/mol]
ATAAACACGTGAGGTT | 0.24
GTGTGCACGTGTCGCG | -0.07
TTCATCACGTGGCGGG | 0.08
CGTATCACGTGTATTG | 0.03
ATTTGCACGTGCAGTT | -0.1
TGTTACACGTGCGATG | 0.1
GGGAGCACGTGTAGCG | -0.12
TTGAGCACGTGTTGTT | 0.03
AATGGCACGTGTGTAT | -0.13
TTGGGCACGTGTGATC | 0.06
GGGATCACGTGGGATT | 0.21
AGGGGCACGTGGTGTG | -0.18
AAGAGCACGTGAGCGG | 0.11
AGTATCACGTGGGAGA | 0.04
GGAGGCACGTGTGCTG | 0.03
GTTCACACGTGTAGTG | 0.05
GAGTACACGTGTTGGT | 0.1
AGAGGCACGTGCCTGG | -0.22
TGTGCCACGTGGGATG | -0.22
GGCGACACGTGAGCGT | 0.25
TGGTACACGTGTGGGT | 0.12
TGAGGCACGTGGGGGT | -0.22
TGAGGCACGTGTATAG | -0.11
GGGTACACGTGAAGAT | 0.29
GGGGACACGTGATGTA | 0.11
GTTTTCACGTGTCACG | 0.37

Sequence | relative binding free energy [kcal/mol]
TTTGACACGTGGTCCT | 0.02
GTATTCACGTGTGGAT | 0.19
TCGGACACGTGGGATT | -0.12
TAGGTCACGTGCAGAG | 0.17
GTGTTCACGTGAGGAT | 0.43
CAATGCACGTGTAGTT | 0.14
ATAGTCACGTGCGGGT | 0.05
TCGATCACGTGTTTGT | -0.02
AATGTCACGTGTTTTG | 0.08
ATGAACACGTGTTTGT | -0.09
GCGCGCACGTGGGGGA | -0.15
TTCGTCACGTGTATAG | 0.05
TGTGGCACGTGTCTTG | -0.07
TGATGCACGTGCGTAG | -0.14
TGTGGCACGTGGAATG | 0.05
GGTAGCACGTGGTTAA | -0.01
ACAATCACGTGGAGGG | 0.08
TAACGCACGTGGTGTA | -0.23
TGTTCCACGTGTGATC | 0.28
TTATTCACGTGGATAC | 0.24
ATCTGCACGTGTTGTT | 0.06
CTCGTCACGTGTAGTG | 0.04
AGAGGCACGTGTGAGA | 0.09
TTAGTCACGTGGACTG | 0.03
TGCGTCACGTGGACGG | 0.05
AGATTCACGTGTACTT | 0.49

Sequence | relative binding free energy [kcal/mol]
CGTTTCACGTGCTGGT | 0.18
AGGCTCACGTGTAAGG | 0.12
TCTTGCACGTGTTTGG | 0.06
AATTTCACGTGTTATG | 0.28
TGGTACACGTGCAGCG | 0.14
TAAGGCACGTGTTAGG | 0.01
AATATCACGTGGGGCT | 0.02
GAATACACGTGTTTAT | 0.24
TTGAGCACGTGAGATA | 0.07
GTTTTCACGTGGTACA | 0.21
GGGGGCACGTGTAGAC | -0.15
TATATCACGTGAGTTC | 0.52
ATTGCCACGTGATGGT | 0.08
GTTATCACGTGCTTGT | 0.17
GGCGTCACGTGGGTTT | 0.05
TGTATCACGTGTAGAT | 0.23
TAAAGCACGTGCGGAG | -0.01
GATTACACGTGAGTTG | 0.31
AGTCGCACGTGGCTGG | -0.19
ACAGGCACGTGGGGGA | -0.26
ATCTGCACGTGGTGGT | -0.17
TGAGGCACGTGGAGAT | -0.02
GGTGTCACGTGAACTG | 0.42
TGGATCACGTGGGTAA | 0.01
CTATTCACGTGGGTGA | 0.2
GAAGTCACGTGGTGAT | 0.07

Sequence | relative binding free energy [kcal/mol]
TAGGCCACGTGTTTAA | 0.02
TTGATCACGTGACTTT | 0.2
TCTAGCACGTGGGTGG | -0.24
TTTGGCACGTGTAGTG | 0.04
GTGGCCACGTGATTTG | 0.15
TGGTTCACGTGACGAG | 0.29
TAGGTCACGTGGAGGT | 0.1
ATTATCACGTGATTTG | 0.29
TGTGCCACGTGCAGGT | -0.25
CTCGTCACGTGGTTGG | -0.01
AGGGGCACGTGTGTGG | -0.17
TAGATCACGTGACGGG | 0.23
GTCGTCACGTGGAAGT | 0.16
GGGCTCACGTGCGGCG | 0.14
GTTTGCACGTGATATC | 0.19
ATCTGCACGTGGGGGC | -0.17
AGTAACACGTGAATGG | 0.18
CTTCTCACGTGATTGT | 0.29
ATGATCACGTGTGTGC | 0.21
CGGCTCACGTGTGTTT | 0.16
AGTGACACGTGGCTGA | -0.08
TTAGGCACGTGAATTG | 0.1
TGTGACACGTGGGATA | -0.12
TTATGCACGTGTAAAT | 0.15
GGTGTCACGTGCGTCG | 0.07
TATGTCACGTGAGGCT | 0.28

Sequence | relative binding free energy [kcal/mol]
TATAACACGTGGGGAT | -0.1
GTTTGCACGTGTGCGC | 0.01
GAGGGCACGTGGAACG | 0.1
CGGTCCACGTGTGTAG | 0.03
GCGTTCACGTGTGCTT | 0.34
ATATTCACGTGGGAGG | 0.32
TTGAGCACGTGAGTGC | 0.13
AGGTGCACGTGTGTCC | -0.05
AAAGTCACGTGGGTAA | 0.07
TCGGTCACGTGGGGAG | 0.03
GGGGTCACGTGTGTTG | 0.19
CAGGGCACGTGTTTAG | -0.13
TGGGGCACGTGAGTAG | 0.05
GAGCGCACGTGTTTTA | 0.05
CGGATCACGTGGTGAG | 0.03
GGGGGCACGTGTAAAT | 0.1
GGCGGCACGTGAGTGA | 0.14
ATGGCCACGTGATGTT | 0.14
TTATTCACGTGAGTGG | 0.45
TACATCACGTGTTTAG | 0.21
CGGTGCACGTGGTGTA | -0.18
AGTTACACGTGGGAGA | 0.15

— the BET-seq Pho4 binding data (Le et al. 2018)
